The values below come from US11866509B2, “Humanized antibodies against CEACAM1” (Famewave Ltd., priority 2014, dated 2024).

For data set [1], the system named is Human melanoma cells (SKMEL28). Put plainly: Cytotoxicity of human LAK cells against melanoma cells, LDH release. The class given is cell-based. Particulars: 0.1-10 μg/ml CM-24, 24 hours. On the procedure:
FIG. 9. Anti-CEACAM1 antibodies increase the cytotoxicity of human LAK cells against human melanoma cells. Human LAK cells were incubated with CM-24 in different concentrations for 30 minutes at 37° C. Human melanoma cancer cells (SKMEL28) were added for an incubation of 24 hours. Results represent an average of % cytotoxicity ±SE as determined by classical LDH release assay from triplicate wells per treatment. * P≤0.05 paired T-test compared to effectors+target cells with medium only.
• A. Anti-CEACAM1 antibodies increase the cytotoxicity of human LAK cells against human melanoma cells: PBMC cells were isolated from a healthy donor followed by activation with IL-2 (500 or 1000 units/ml) for 3 days to generate a population of human LAK cells. Then, the human LAK cells were incubated with 0.1 μg/ml, 0.5 μg/ml, 2.5 μg/ml, 5 μg/ml or 10 μg/ml of an anti-CEACAM1 antibody (CM-24) for 30 minutes at 37° C. Human melanoma cells (SKMEL28) were added for an incubation of 24 hours, after which cytotoxicity was determined. […] PBMC cells were isolated from a healthy donor followed by activation with IL-2 (500 units/ml) for 7 days to generate a population of human LAK cells. Then, the human LAK cells were incubated with 0.1 μg/ml to 10 μg/ml of an anti-CEACAM1 antibody (CM-24) as indicated, for 30 minutes at 37° C. […] Granzyme B secretion was measured by ELISA. […] IFN-γ secretion was measured by ELISA.

Data set [2] deals with granzyme B secretion of human TIL cells (TIL14). Put plainly: Granzyme B ELISA in TIL / melanoma co-culture. It is filed as cell-based. On the procedure: FIGS. 5A-5B Synergistic effects of anti-CEACAM1 and anti-PD-1 antibodies on Granzyme B levels and the cytotoxicity of human TIL cells against human melanoma cells when anti-PD-1 antibodies are added prior to the addition of anti-CEACAM1 antibodies. Human melanoma cells were grown in the presence of IFN-ã to induce PD-L1 expression. Human TIL cells were incubated with medium only (black), non-specific IgG antibody (white), various concentrations of a monoclonal antibody to human CEACAM1 (vertical lines), a monoclonal antibody to human PD-1 (horizontal lines) or a combination of both antibodies (dots). (FIG. 5A) Results represent an average of % cytotoxicity ±SE as determined by classical LDH release assay from triplicate wells per treatment. * P≤0.05 paired T-test compared to a-PD-1 only. (FIG. 5B) Results represent Granzyme B levels ±SE as determined by commercial Granzyme B ELISA kit from triplicate wells per treatment.
Human melanoma cancer cells (MALME 3M) were grown in the presence of IFN-ã to induce PD-L1 expression. […] The combination index (CI) was calculated to be 0.15. In the same assay, the level of the cytotoxic protein granzyme B that is secreted upon cytotoxic cell activation was evaluated by commercial granzyme B ELISA Kit. […] The combination index (CI) was calculated to be 0.67. […]

B1: CM-24: back-mutated humanized IgG4 anti human CEACAM1 monoclonal antibody; light chain SEQ ID NO: 52, heavy chain SEQ ID NO: 53 (antibody)
heavy: QVQLVQSGAEVKKPGASVKVSCKASGYAFTNNLIEWVRQAPGQGLEWIGVINPGSGDTNYNEKFKGRVTMTADKSISTAYMELSRLRSDDTAVYYCARGDYYGGFAVDYWGQGTTVTVSSASTKGPSVFPLAPCSRSTSESTAALGCLVKDYFPEPVTVSWNSGALTSGVHTFPAVLQSSGLYSLSSVVTVPSSSLGTKTYTCNVDHKPSNTKVDKRV[letters of human IgG4 Fc with S228P (EU numbers) left out]
light: DIQMTQSPSSLSASVGDRVTITCRTSQDIGNYLNWYQQKPGKAVKLLIYYTSRLHSGVPSRFSGSGSGTDYTLTISSLQPEDIATYFCQQGKSLPRTFGGGTKVEIKRTVAAPSVFIFPPSDEQLKSGTASVVCLLNNFYPREAKVQWKVDNALQSGNSQESVTEQDSKDSTYSLSSTLTLSKADYEKHKVYACEVTHQGLSSPVTKSFNRGEC
As to B1, the “cytotoxicity of human LAK cells” value in data set [1] is reported as “significantly increases cytotoxicity”. The “granzyme B secretion” value is “increases the granzyme B secretion” in data set [2] (CM-24 with mAb to human PD-1 (clone E12.2H7), anti-PD-1 added first) and “increases the granzyme B secretion” in data set [2] (CM-24 with mAb to human PD-L1 (clone 29E.2A3), anti-PD-L1 added first).
